# Data as given in the supplement of paper PMC8728848.
# The other results are listed elsewhere or left out.
# B1: AT5G01260(PC)(40) (Arabidopsis thaliana), Q9LFB0 (protein)
# chain: MIGIGRTLTSSSPSKIILEDLPPGIYRYGTEIFTSVPRKTFHHIKFLRLDSAQSSRILKPVPLRSSSIKDSQVNVEDEEIEASNKTVRVRFQLRKECVFGEHFFIVGDDPVFGGLWDPETALPLNWSDGNVWTVDLDLPVGRLVEFKLLLKAQTGEILWQPGPNRALETWETNKTIRICEDWDNADLQMMIEEDFVPYTNISSIGSEDEDEVLGSVQQNSSVVAVENAGYVSDESAQNSSFSIQSEKTMEPSNGALTAREVIKEAMFTEEESPVLVPGLIPLSDLDNEQVEVINEGKAETFPEVDKKQEPKAERNKKAKVKAISLFEKSEQEAVKSVEQRQYNAVEEEQQRLETEPLGTPDVLFENDIQWGRRTLYKLLSNFRLF
# Legend:
# Experiment in all cases: glycan array binding signal (z-score within array); higher = stronger binding
# Details in all cases: glycan notation: IUPAC condensed, linker removed
# [1] = target: GlcNAc(a1-6)Gal(b1-4)GlcNAc
# Outline: (§1)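 Glycan array data were curated from 3228 arrays in the Consortium for Functional Glycomics database and kept only where the protein sequence was available. Glycan names were converted to IUPAC-condensed notation, and columns mapping to the same glycan were averaged. The binding signal is a within-array Z-score, averaged across arrays of the same protein sequence at different concentrations or buffers and across linkers. Negative Z-scores can be read as non-binding.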
# [2] = target: GlcNAc(b1-2)Gal(b1-3)GalNAc
# Outline: as §1
# [3] = target: GlcNAc(b1-2)Man(a1-3)[GlcNAc(b1-2)Man(a1-6)]Man(b1-4)GlcNAc(b1-4)GlcNAc
# Outline: as §1
# [4] = target: GlcNAc(b1-2)Man(a1-3)[GlcNAc(b1-2)Man(a1-6)]Man(b1-4)GlcNAc(b1-4)[Fuc(a1-6)]GlcNAc
# Outline: as §1
# [5] = target: GlcNAc(b1-2)Man(a1-3)[GlcNAc(b1-4)][GlcNAc(b1-2)Man(a1-6)]Man(b1-4)GlcNAc(b1-4)GlcNAc
# Outline: as §1
# [6] = target: GlcNAc(b1-2)Man(a1-3)[GlcNAc(b1-4)][GlcNAc(b1-2)Man(a1-6)]Man(b1-4)GlcNAc(b1-4)[Fuc(a1-6)]GlcNAc
# Outline: as §1
# [7] = target: GlcNAc(b1-2)[GlcNAc(b1-4)]Man(a1-3)[GlcNAc(b1-2)Man(a1-6)]Man(b1-4)GlcNAc(b1-4)GlcNAc
# Outline: as §1
# [8] = target: GlcNAc(b1-2)[GlcNAc(b1-4)]Man(a1-3)[GlcNAc(b1-4)][GlcNAc(b1-2)Man(a1-6)]Man(b1-4)GlcNAc(b1-4)GlcNAc
# Outline: as §1
# [9] = target: GlcNAc(b1-2)[GlcNAc(b1-4)]Man(a1-3)[GlcNAc(b1-4)][GlcNAc(b1-2)[GlcNAc(b1-6)]Man(a1-6)]Man(b1-4)GlcNAc(b1-4)GlcNAc
# Outline: as §1
# [10] = target: GlcNAc(b1-2)[GlcNAc(b1-4)]Man(a1-3)[GlcNAc(b1-4)][GlcNAc(b1-2)[GlcNAc(b1-6)]Man(a1-6)]Man(b1-4)GlcNAc(b1-4)[Fuc(a1-6)]GlcNAc
# Outline: as §1
# [11] = target: GlcNAc(b1-2)[GlcNAc(b1-6)]Man(a1-6)[GlcNAc(b1-2)Man(a1-3)]Man(b1-4)GlcNAc(b1-4)GlcNAc
# Outline: as §1
# [12] = target: GlcNAc(b1-2)[GlcNAc(b1-6)]Man(a1-6)[GlcNAc(b1-2)Man(a1-3)]Man(b1-4)GlcNAc(b1-4)[Fuc(a1-6)]GlcNAc
# Outline: as §1
# [13] = target: GlcNAc(b1-2)[GlcNAc(b1-6)]Man(a1-6)[GlcNAc(b1-4)][GlcNAc(b1-2)Man(a1-3)]Man(b1-4)GlcNAc(b1-4)GlcNAc
# Outline: as §1
# [14] = target: GlcNAc(b1-3)Fuc
# Outline: as §1
# [15] = target: GlcNAc(b1-3)Gal
# Outline: as §1
# [16] = target: GlcNAc(b1-3)Gal(b1-3)GalNAc
# Outline: as §1
# [17] = target: GlcNAc(b1-3)Gal(b1-4)Glc
# Outline: as §1
# [18] = target: GlcNAc(b1-3)Gal(b1-4)GlcNAc
# Outline: as §1
# [19] = target: GlcNAc(b1-3)Gal(b1-4)GlcNAc(b1-2)Man(a1-3)[GlcNAc(b1-3)Gal(b1-4)GlcNAc(b1-2)Man(a1-6)]Man(b1-4)GlcNAc(b1-4)GlcNAc
# Outline: as §1
# [20] = target: GlcNAc(b1-3)Gal(b1-4)GlcNAc(b1-2)Man(a1-3)[GlcNAc(b1-3)Gal(b1-4)GlcNAc(b1-2)Man(a1-6)]Man(b1-4)GlcNAc(b1-4)[Fuc(a1-6)]GlcNAc
# Outline: as §1
# [21] = target: GlcNAc(b1-3)Gal(b1-4)GlcNAc(b1-2)[GlcNAc(b1-3)Gal(b1-4)GlcNAc(b1-6)]Man(a1-6)[GlcNAc(b1-3)Gal(b1-4)GlcNAc(b1-2)Man(a1-3)]Man(b1-4)GlcNAc(b1-4)GlcNAc
# Outline: as §1
# [22] = target: GlcNAc(b1-3)Gal(b1-4)GlcNAc(b1-3)Gal(b1-4)GlcNAc
# Outline: as §1
binder,measurement,setting,value
B1,glycan array binding signal (z-score),[1],0.435
same,glycan array binding signal (z-score),[2],-0.771
same,glycan array binding signal (z-score),[3],-0.443
same,glycan array binding signal (z-score),[4],-0.198
same,glycan array binding signal (z-score),[5],-0.267
same,glycan array binding signal (z-score),[6],-0.661
same,glycan array binding signal (z-score),[7],-0.588
same,glycan array binding signal (z-score),[8],0.153
same,glycan array binding signal (z-score),[9],-0.822
same,glycan array binding signal (z-score),[10],-0.516
same,glycan array binding signal (z-score),[11],0.08
same,glycan array binding signal (z-score),[12],0.234
same,glycan array binding signal (z-score),[13],-0.575
same,glycan array binding signal (z-score),[14],-0.109
same,glycan array binding signal (z-score),[15],-0.592
same,glycan array binding signal (z-score),[16],0.885
same,glycan array binding signal (z-score),[17],-0.576
same,glycan array binding signal (z-score),[18],-0.384
same,glycan array binding signal (z-score),[19],0.329
same,glycan array binding signal (z-score),[20],-0.424
same,glycan array binding signal (z-score),[21],1.23
same,glycan array binding signal (z-score),[22],-0.868
